Results taken from the supplement of paper PMC11417369.
± gives the standard deviation of the averaged measurements. The list shows a part of the results.

system: PfAP2-I AP2 domain 3 (GST-tagged); assay: gcPBM binding intensity (ln(normalized median fluorescence intensity)); higher = stronger DNA binding
How it was run: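 Plasmodium falciparum DNA-binding domains carrying a GST tag were expressed in E. coli and applied for 1 h, at about 25 μg on average, to an Agilent 4 × 180k array. The array held primer-extended double-stranded 36-bp intergenic genomic probes together with negative controls, and binding took place in 1× PBS with 1% milk, 0.2 mg/ml BSA, 0.5% salmon testes DNA and 0.03% Triton X-100. An Alexa488 anti-GST antibody detected bound protein, and the array was scanned at 488 nm. Binding intensity is taken as the highest Masliner-normalised natural-log median intensity across replicate spots of either probe orientation.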

Sequence	gcPBM binding intensity (ln)
ATTTAAGCATTATTTTGTACGAAAATAAAAAAATGA [XGTACX_site6958]	7.91 ± 0.5
ATATAAAAAAATAAAACACACACATATATATTATAT [CACACA_site8909]	7.8 ± 0.5
AAAGGAAAATGTGTAAAAAGAAATGCTAGGTATATA [GTGCAC_negctrl_site699]	7.77 ± 0.83
ATATATATATAATATAGTACGTATAATATATGAATC [XGTACX_site4385]	8.78 ± 0.071
TATAATGCTCTTCTTTGTACATATTATGATTATATT [XGTACX_site2332]	8.53 ± 0.26
AAAAAAAAAAAAAACACACAAATCATAAATAAATAT [CACACA_site6362]	8.02 ± 0.4
TAATAGTATATAAAAAGTACATAATAAGATATGAAA [XGTACX_site1000]	7.76 ± 0.63
AAAAAAAAAATTGAAAGTACAAATATGTATTATATA [XGTACX_site2455]	7.47 ± 0.53
TAAAATATGTCATGTGGTACATGAATAGCTTTTATT [XGTACX_site3809]	7.58 ± 0.47
ATTATGTGCCAATACACACACACATATATATATATA [CACACA_site468]	9.265 ± 0.049
TTTAAATATTACATATGTACTTATAAATATATATAT [XGTACX_site1284]	8.71 ± 0.11
AAGGAATAGGCATATACACACAGGTACAGATATATA [CACACA_site4402]	7.86 ± 0.57
ACTACGTGGATTAGTTCAAGGGAACACGTCCTATAC [CACACA_negctrl_site1427]	7.85 ± 0.65
CAACAAAAGTTATTTACACACAAAAGGCAAGGAAAT [CACACA_site7013]	8.2 ± 0.81
ACTAAACGAATAAATTGTACAAAGAAATATATTCAT [XGTACX_site6766]	7.83 ± 0.54
ATATTTCATTTTTGTACACACAACGTTGGAGGGTTT [CACACA_site3043]	8.09 ± 0.63
TAAAAAATTACATATTGTACAGGCAAAATTACACAT [XGTACX_site1152]	7.81 ± 0.64
AAAGGAAATAAAAACGCACACAGAAATAATATCTAT [CACACA_site457]	7.99 ± 0.64
TCATATAAATACACGTGTACATATATATATTACAGT [XGTACX_site1954]	7.96 ± 0.49
AATATAAAAAATAGTTGTACTATATTTAAATATGAC [XGTACX_site2937]	7.88 ± 0.22
AGTTTGCATATGGAAGTGCATTACCTTGAACATCAT	11.2 ± 0.38
AAAAAATATATATGCACACACAAAAAAACAAATTAA [CACACA_site1278]	9.27 ± 0.3
AACTCATAAAATAATGGTACACAAAAAAAATAAATA [XGTACX_site7648]	7.91 ± 0.5

Sequence	gcPBM binding intensity (ln)
TTAGGCAAGGCGGGGGGTACGTTTTTATATAATTAT [XGTACX_site8029]	10.7 ± 0.3
TTAGATTTATAAGTGTGTACGTAAAATACTTAATAA [XGTACX_site8246]	7.98 ± 0.31
CAAGGAACCAGACACACACACATAAATGTATTTATA [CACACA_site6491]	7.68 ± 0.61
TTTTTTTTTTTCTTTTGTACGTATAAAATTATATAA [XGTACX_site2453]	8.15 ± 0.67
TTTTTATCTAATCTAATATTATATTATACATATAAT [XGTACX_negctrl_site275]	7.54 ± 0.73
TGTGTGTGCTTATTTTGTACATATTAGGTAAATATT [XGTACX_site6329]	8.38 ± 0.18
TTTATGGAATAATCACGTACACACAAGAAAAAAAAA [XGTACX_site985]	8.29 ± 0.61
TACATACATACATACACACATACATATGTATATATA [CACACA_site2480]	8.89 ± 0.94
TAATGCCATAATACGTGTACTTAATATATTAGAACA [XGTACX_site5809]	8.06 ± 0.57
CTCAAATGTTATTGTAGTACCTAAAAAATATATTCT [XGTACX_site1970]	7.59 ± 0.49
GTTGGTAGGCGGTACGGTACACGTAAAGTTTTTCTT [XGTACX_site7706]	7.79 ± 0.47
ATAAATGACAAATTAACACACATATATTATATATAT [CACACA_site3899]	8.16 ± 0.47
ACCATATAAATAAACACACACACACGGATATAAATA [CACACA_site7157]	8.05 ± 0.44
TATATGTTTTATAGTACACACATAAATGGACATACT [CACACA_site2191]	7.83 ± 0.33
TGAATTTAGATATATACACACAAAAGTATATACAAT [CACACA_site2804]	7.53 ± 0.54
ATATGTATTAAGTGTACACATATAATCTATCTTGTT [CACACA_site5329]	8.21 ± 0.2
CCCACTAAAAAACACACACACACACCCATATATATA [CACACA_site6140]	8.43 ± 0.65
TTTTTTTTATATAGTAGTACTAATTAGAATTTTTAT [XGTACX_site7476]	7.82 ± 0.32
ATATATTTTAAATATATTATTATTGCATTGTGAAAA [TGCATGCA_negctrl_site106]	8.04 ± 0.12
CACAGACACGGACACACACACACACCCACATATATA [CACACA_site4355]	8.3 ± 0.28
AAAAAAAAAAAAAAAACACACATATATATATATATA [CACACA_site2436]	10 ± 0.13
TCTTAAAAAATAGGGACACGTAAATATAATATATAA [CACACA_negctrl_site554]	7.83 ± 0.57
